Results: the supplement of paper PMC10037445
Several values for one entry are separate records, joined by “and”; a condition that tells them apart may be missing. Identical values can stand only once. ± gives the standard deviation of the averaged measurements. Over roughly 2,900 compounds, “IRF Lucia reporter activity, fold change vs agonist alone” has its median near 0.9; the highest 2% begin near 2.8. The list shows a part of the results.

Assays:
RAW-Dual [1] = assay: IRF Lucia reporter activity, fold change vs agonist alone; cytotoxicity flag (confluency mask): not cytotoxic; higher = enhanced IRF activity
Summary of the method: (§1)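 RAW-Dual macrophages (50,000 cells/well in DMEM, 384-well plates) received 50 nL of library stock by pin tool, then a PRR agonist 1 h later, and were kept at 37 °C, 5% CO2. After 20 hours, supernatant was read for IRF by QuantiLuc luminescence and for NF-κB by QuantiBlue absorbance at 620 nm. Reporter activity is fold change over agonist-alone wells. Cytotoxic wells had IncuCyte confluency below 70% of agonist controls in both mask sets.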

RAW-Dual [2] = assay: IRF Lucia reporter activity, fold change vs agonist alone; cytotoxicity flag (confluency mask): cytotoxic (confluency <70% of control); higher = enhanced IRF activity
Summary of the method: as §1

RAW-Dual [3] = assay: IRF Lucia reporter activity, fold change vs agonist alone; higher = enhanced IRF activity; details: cytotoxicity flag (confluency mask): not cytotoxic, agonist: MPLA (TLR4) […]
Summary of the method: as §1

[4] = agonist: 3'3'-cGAMP (STING) 10 ug/mL
[5] = library stock concentration (final ~1000-fold dilution): 10 mM

COc1cc(-c2oc3cc(O)cc(O)c3c(=O)c2O)ccc1O (library stock concentration (final ~1000-fold dilution): 10 mM)
IRF Lucia reporter activity (RAW-Dual [1]; [4]): 0.165 ± 0.043
IRF Lucia reporter activity (RAW-Dual [1]; agonist: LPS (TLR4) 0.1 ug/mL): 0.745 ± 0.063

CN(c1ccccc1CNc1nc(Nc2ccc3c(c2)CC(=O)N3)ncc1C(F)(F)F)S(C)(=O)=O (library stock concentration (final ~1000-fold dilution): 10 mM)
IRF Lucia reporter activity (RAW-Dual [2]; [4]): 0.0122
IRF Lucia reporter activity (RAW-Dual [2]; agonist: LPS (TLR4) 0.1 ug/mL): 0.0141

S=C(S)N1CCCC1 (library stock concentration (final ~1000-fold dilution): 10 mM)
IRF Lucia reporter activity (RAW-Dual [2]; [4]): 0.392
IRF Lucia reporter activity (RAW-Dual [2]; agonist: LPS (TLR4) 0.1 ug/mL): 0.791

COc1cc(N2CCN(C)CC2)ccc1Nc1ncc2c(n1)N(C)c1ccccc1C(=O)N2 (library stock concentration (final ~1000-fold dilution): 10 mM)
IRF Lucia reporter activity (RAW-Dual [1]; [4]): 0.443
IRF Lucia reporter activity (RAW-Dual [1]; agonist: LPS (TLR4) 0.1 ug/mL): 0.772

C[N+]1(C)CCC[C@H]1C(=O)O (library stock concentration (final ~1000-fold dilution): 10 mM)
IRF Lucia reporter activity (RAW-Dual [1]; [4]): 1.01
IRF Lucia reporter activity (RAW-Dual [1]; agonist: LPS (TLR4) 0.1 ug/mL): 1.13

O=c1oc2c(O)c(O)cc3c(=O)oc4c(O)c(O)cc1c4c23
IRF Lucia reporter activity (RAW-Dual [3]; library stock concentration (final ~1000-fold dilution): 2 mM): 1.36

O=c1oc2c(O)c(O)cc3c(=O)oc4c(O)c(O)cc1c4c23 (library stock concentration (final ~1000-fold dilution): 2 mM)
IRF Lucia reporter activity (RAW-Dual [1]; [4]): 1.02
IRF Lucia reporter activity (RAW-Dual [1]; agonist: LPS (TLR4) 0.1 ug/mL): 0.908

Cc1csc(-c2nc[nH]c2-c2ccc3ncsc3c2)n1.Cl (library stock concentration (final ~1000-fold dilution): 10 mM)
IRF Lucia reporter activity (RAW-Dual [1]; [4]): 0.341
IRF Lucia reporter activity (RAW-Dual [1]; agonist: LPS (TLR4) 0.1 ug/mL): 0.655

CC(=O)c1cc2c(o1)C(=O)c1ccccc1C2=O (library stock concentration (final ~1000-fold dilution): 10 mM)
IRF Lucia reporter activity (RAW-Dual [2]; [4]): 0.306
IRF Lucia reporter activity (RAW-Dual [2]; agonist: LPS (TLR4) 0.1 ug/mL): 0.00847

CCN(CC)CC(=O)Nc1c(C)cccc1C (library stock concentration (final ~1000-fold dilution): 10 mM)
IRF Lucia reporter activity (RAW-Dual [1]; [4]): 1.25 and 1.17
IRF Lucia reporter activity (RAW-Dual [1]; agonist: LPS (TLR4) 0.1 ug/mL): 1.14 and 1.52

CCC(C)(Oc1ccc(C2(c3ccc(OC(C)(CC)C(=O)O)cc3)CCCCC2)cc1)C(=O)O (stereo not given) (library stock concentration (final ~1000-fold dilution): 10 mM)
IRF Lucia reporter activity (RAW-Dual [1]; [4]): 1.1
IRF Lucia reporter activity (RAW-Dual [1]; agonist: LPS (TLR4) 0.1 ug/mL): 0.969

CCC(C)(Oc1ccc(C2(c3ccc(OC(C)(CC)C(=O)O)cc3)CCCCC2)cc1)C(=O)O (stereo not given)
IRF Lucia reporter activity (RAW-Dual [3]; [5]): 1.26

CNc1cc(-c2cccc(Cl)c2Cl)nc(N)n1 (library stock concentration (final ~1000-fold dilution): 10 mM)
IRF Lucia reporter activity (RAW-Dual [1]; [4]): 0.702
IRF Lucia reporter activity (RAW-Dual [1]; agonist: LPS (TLR4) 0.1 ug/mL): 0.735

OCC1NCC(O)C(O)C1O (stereo not given)
IRF Lucia reporter activity (RAW-Dual [3]; [5]): 1.09

OCC1NCC(O)C(O)C1O (stereo not given) (library stock concentration (final ~1000-fold dilution): 10 mM)
IRF Lucia reporter activity (RAW-Dual [1]; [4]): 1.06
IRF Lucia reporter activity (RAW-Dual [1]; agonist: LPS (TLR4) 0.1 ug/mL): 1.06

c1nc2c(NC3CCCCC3)nc(Nc3ccc(N4CCOCC4)cc3)nc2[nH]1 (library stock concentration (final ~1000-fold dilution): 10 mM)
IRF Lucia reporter activity (RAW-Dual [2]; [4]): 0.107
IRF Lucia reporter activity (RAW-Dual [2]; agonist: LPS (TLR4) 0.1 ug/mL): 0.0806

COc1cc2nccc(Oc3ccc(NC(=O)NC4CC4)c(Cl)c3)c2cc1C(N)=O (library stock concentration (final ~1000-fold dilution): 10 mM)
IRF Lucia reporter activity (RAW-Dual [1]; [4]): 0.453
IRF Lucia reporter activity (RAW-Dual [1]; agonist: LPS (TLR4) 0.1 ug/mL): 0.643

COc1cc2nccc(Oc3ccc(NC(=O)NC4CC4)c(Cl)c3)c2cc1C(N)=O
IRF Lucia reporter activity (RAW-Dual [3]; [5]): 0.592

CCCOc1ccc(C(=O)OCCN(CC)CC)cc1N.Cl (library stock concentration (final ~1000-fold dilution): 10 mM)
IRF Lucia reporter activity (RAW-Dual [1]; [4]): 1.04
IRF Lucia reporter activity (RAW-Dual [1]; agonist: LPS (TLR4) 0.1 ug/mL): 0.91

CCCOc1ccc(C(=O)OCCN(CC)CC)cc1N.Cl
IRF Lucia reporter activity (RAW-Dual [3]; [5]): 0.743

COc1nc(OCc2cccc(-c3ccccc3)c2C)ccc1CNCCNC(C)=O (library stock concentration (final ~1000-fold dilution): 10 mM)
IRF Lucia reporter activity (RAW-Dual [2]; [4]): 0.221
IRF Lucia reporter activity (RAW-Dual [2]; agonist: LPS (TLR4) 0.1 ug/mL): 0.467

Cc1c(-c2ccccc2)oc2c(C(=O)OCCN3CCCCC3)cccc2c1=O.Cl (library stock concentration (final ~1000-fold dilution): 10 mM water)
IRF Lucia reporter activity (RAW-Dual [1]; [4]): 1.09
IRF Lucia reporter activity (RAW-Dual [1]; agonist: LPS (TLR4) 0.1 ug/mL): 0.892

Cc1c(-c2ccccc2)oc2c(C(=O)OCCN3CCCCC3)cccc2c1=O.Cl
IRF Lucia reporter activity (RAW-Dual [3]; library stock concentration (final ~1000-fold dilution): 10 mM water): 1.29

CN1CCc2c(c3ccccc3n2Cc2ccc(C(=O)NO)cc2)C1 (library stock concentration (final ~1000-fold dilution): 10 mM)
IRF Lucia reporter activity (RAW-Dual [1]; [4]): 0.943
IRF Lucia reporter activity (RAW-Dual [1]; agonist: LPS (TLR4) 0.1 ug/mL): 1.19

CN(C)C(=O)c1ccc(S(=O)(=O)c2ccc(NC(=O)C(C)(O)C(F)(F)F)c(Cl)c2)cc1 (stereo not given) (library stock concentration (final ~1000-fold dilution): 10 mM)
IRF Lucia reporter activity (RAW-Dual [1]; [4]): 1.25
IRF Lucia reporter activity (RAW-Dual [1]; agonist: LPS (TLR4) 0.1 ug/mL): 1.24

CN(C)C(=O)c1ccc(S(=O)(=O)c2ccc(NC(=O)C(C)(O)C(F)(F)F)c(Cl)c2)cc1 (stereo not given)
IRF Lucia reporter activity (RAW-Dual [3]; [5]): 1.27
